Paper PMC2730530
Results are given in words; binding and its absence hold for the method and conditions named. Binding seen in cells or lysates may run through a third protein. Some results given as binding are weak or reduced against the parent protein; the word gives no strength. For some of these results: Tags and fused reporters may be left off the sequences shown. One block for each molecule: values may come before it.

Sequences of proteins named here, by UniProt entry; tags and fusion partners are left off.
UniProt P97879: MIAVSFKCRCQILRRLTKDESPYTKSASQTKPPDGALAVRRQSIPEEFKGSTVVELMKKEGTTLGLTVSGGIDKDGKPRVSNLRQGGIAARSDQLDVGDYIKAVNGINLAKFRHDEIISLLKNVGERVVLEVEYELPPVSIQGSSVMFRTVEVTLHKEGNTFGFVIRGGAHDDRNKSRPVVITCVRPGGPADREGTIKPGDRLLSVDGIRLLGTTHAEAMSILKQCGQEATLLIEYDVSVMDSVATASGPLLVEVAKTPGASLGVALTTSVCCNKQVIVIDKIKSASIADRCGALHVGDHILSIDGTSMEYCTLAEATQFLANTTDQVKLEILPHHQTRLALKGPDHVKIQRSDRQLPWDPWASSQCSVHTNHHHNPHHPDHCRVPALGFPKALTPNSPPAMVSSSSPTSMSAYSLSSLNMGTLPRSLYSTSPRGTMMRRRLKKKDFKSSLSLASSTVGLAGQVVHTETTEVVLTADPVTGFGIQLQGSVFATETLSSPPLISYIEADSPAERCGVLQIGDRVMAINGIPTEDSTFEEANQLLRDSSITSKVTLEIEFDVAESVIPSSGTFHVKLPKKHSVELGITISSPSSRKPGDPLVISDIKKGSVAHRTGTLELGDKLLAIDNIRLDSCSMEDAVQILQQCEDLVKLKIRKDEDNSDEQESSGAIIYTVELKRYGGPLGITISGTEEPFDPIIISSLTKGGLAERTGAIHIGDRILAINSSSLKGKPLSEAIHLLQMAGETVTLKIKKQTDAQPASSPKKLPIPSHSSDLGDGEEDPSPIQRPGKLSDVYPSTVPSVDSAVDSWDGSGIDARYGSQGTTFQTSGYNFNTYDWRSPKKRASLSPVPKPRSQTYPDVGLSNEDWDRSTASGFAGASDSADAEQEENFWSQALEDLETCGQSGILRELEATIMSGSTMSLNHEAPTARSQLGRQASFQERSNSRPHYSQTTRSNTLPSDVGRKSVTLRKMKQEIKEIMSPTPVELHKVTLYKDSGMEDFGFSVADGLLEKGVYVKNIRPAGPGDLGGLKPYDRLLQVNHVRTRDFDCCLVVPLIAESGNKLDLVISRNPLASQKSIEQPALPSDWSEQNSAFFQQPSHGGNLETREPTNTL
UniProt O88382: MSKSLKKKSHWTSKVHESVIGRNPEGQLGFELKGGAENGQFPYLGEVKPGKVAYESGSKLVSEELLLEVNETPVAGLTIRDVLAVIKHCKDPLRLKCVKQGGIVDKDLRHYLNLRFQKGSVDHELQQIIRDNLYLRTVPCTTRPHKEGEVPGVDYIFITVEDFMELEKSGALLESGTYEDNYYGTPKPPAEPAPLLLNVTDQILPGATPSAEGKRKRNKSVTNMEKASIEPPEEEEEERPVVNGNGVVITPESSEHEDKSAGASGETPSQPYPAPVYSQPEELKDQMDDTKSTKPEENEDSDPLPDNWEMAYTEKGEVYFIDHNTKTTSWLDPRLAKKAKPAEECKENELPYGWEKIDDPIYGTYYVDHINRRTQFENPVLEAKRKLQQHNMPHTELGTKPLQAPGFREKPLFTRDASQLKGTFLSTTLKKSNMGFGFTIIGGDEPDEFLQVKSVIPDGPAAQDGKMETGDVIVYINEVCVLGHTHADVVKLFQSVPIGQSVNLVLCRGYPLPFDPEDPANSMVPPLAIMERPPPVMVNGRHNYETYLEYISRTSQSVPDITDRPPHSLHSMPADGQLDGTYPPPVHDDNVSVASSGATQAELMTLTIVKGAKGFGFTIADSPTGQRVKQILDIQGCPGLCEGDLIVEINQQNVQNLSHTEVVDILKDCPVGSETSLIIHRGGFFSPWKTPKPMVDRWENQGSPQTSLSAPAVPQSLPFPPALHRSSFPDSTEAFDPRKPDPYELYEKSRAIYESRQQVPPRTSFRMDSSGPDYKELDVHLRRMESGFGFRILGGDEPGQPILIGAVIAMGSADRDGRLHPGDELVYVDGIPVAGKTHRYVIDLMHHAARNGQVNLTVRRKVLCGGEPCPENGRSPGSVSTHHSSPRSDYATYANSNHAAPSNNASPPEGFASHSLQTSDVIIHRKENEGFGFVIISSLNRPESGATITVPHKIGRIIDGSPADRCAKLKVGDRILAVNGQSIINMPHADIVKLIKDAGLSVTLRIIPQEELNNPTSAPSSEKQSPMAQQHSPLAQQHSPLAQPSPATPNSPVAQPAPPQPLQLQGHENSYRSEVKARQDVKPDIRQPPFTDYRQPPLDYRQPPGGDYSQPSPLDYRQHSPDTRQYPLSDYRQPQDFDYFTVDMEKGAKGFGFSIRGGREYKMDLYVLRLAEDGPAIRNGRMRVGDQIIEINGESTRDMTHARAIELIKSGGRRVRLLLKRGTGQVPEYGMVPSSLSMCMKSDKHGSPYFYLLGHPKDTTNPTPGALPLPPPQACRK
UniProt Q62696: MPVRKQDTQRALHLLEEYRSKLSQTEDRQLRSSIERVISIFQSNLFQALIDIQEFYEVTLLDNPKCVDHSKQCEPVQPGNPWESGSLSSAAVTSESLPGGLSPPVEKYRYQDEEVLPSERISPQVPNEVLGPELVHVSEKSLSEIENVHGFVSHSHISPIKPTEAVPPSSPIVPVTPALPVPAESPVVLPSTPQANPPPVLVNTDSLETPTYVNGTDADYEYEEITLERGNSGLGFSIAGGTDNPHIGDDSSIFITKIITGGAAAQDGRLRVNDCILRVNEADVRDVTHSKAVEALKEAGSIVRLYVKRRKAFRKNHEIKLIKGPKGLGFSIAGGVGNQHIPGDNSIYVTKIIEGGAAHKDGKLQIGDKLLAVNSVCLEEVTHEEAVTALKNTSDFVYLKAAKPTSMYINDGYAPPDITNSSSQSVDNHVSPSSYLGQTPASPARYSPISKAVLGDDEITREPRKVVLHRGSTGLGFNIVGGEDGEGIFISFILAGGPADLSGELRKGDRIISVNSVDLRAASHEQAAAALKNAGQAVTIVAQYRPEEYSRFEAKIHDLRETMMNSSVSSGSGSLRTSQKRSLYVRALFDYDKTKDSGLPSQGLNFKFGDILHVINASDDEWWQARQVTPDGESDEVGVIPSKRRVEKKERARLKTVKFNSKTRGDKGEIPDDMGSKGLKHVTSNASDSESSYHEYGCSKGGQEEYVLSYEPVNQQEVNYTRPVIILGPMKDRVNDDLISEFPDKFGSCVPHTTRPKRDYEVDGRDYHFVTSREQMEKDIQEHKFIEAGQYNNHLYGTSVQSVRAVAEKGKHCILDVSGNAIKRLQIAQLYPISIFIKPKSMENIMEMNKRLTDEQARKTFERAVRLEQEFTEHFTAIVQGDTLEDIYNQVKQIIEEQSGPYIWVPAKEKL
UniProt Q15311: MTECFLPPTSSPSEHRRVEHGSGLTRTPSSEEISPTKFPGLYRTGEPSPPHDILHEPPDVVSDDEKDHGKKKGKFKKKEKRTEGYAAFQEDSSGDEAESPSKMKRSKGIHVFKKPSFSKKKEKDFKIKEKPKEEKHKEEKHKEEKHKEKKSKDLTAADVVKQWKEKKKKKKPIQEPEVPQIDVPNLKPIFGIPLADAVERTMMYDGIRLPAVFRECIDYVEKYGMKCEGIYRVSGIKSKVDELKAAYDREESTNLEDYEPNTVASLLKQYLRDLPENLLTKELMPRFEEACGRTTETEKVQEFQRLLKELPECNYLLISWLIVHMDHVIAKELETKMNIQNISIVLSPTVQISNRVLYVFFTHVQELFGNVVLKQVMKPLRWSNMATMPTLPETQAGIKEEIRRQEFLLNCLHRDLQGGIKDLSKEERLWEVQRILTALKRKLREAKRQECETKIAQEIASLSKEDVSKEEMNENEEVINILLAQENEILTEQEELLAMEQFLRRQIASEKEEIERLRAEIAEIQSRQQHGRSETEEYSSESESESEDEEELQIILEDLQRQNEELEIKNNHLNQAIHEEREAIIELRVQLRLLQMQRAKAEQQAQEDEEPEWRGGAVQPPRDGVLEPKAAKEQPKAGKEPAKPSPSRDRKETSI

What was measured:
HA-RalA G23V (mouse) = target: T1, HA-RalA G23V (mouse) (UniProt P63321); assay: co-IP; lysates of HEK293T cells triply transfected with HA-RalA (G23V or S28N), RalBP1 and PSD-95; immunoprecipitated with HA antibodies and immunoblotted
T1 sequence: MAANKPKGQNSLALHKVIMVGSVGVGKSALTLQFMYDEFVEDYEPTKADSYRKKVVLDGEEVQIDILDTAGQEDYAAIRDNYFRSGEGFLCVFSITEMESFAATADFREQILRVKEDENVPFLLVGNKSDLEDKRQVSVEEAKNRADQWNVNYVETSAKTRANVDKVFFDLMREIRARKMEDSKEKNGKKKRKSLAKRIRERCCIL

HA-RalA S28N (mouse) = target: T2, HA-RalA S28N (mouse) (UniProt P63321); assay: as above
T2 sequence: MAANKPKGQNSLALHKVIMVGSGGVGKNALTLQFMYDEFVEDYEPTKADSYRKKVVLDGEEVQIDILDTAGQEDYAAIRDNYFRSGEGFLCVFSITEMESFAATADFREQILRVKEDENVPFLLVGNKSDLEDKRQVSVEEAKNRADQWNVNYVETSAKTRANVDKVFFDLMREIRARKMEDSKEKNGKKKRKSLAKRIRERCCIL

[1] = target: GRIP1 (endogenous, rat brain) (rat (endogenous in rat brain)) (UniProt P97879); assay: co-IP; deoxycholate (1%) extracts of the crude synaptosomal fraction of adult rat brain; immunoprecipitated with PSD-95 or RalBP1 antibodies (boiled antibodies as control) and immunoblotted
[2] = target: S-SCAM (endogenous, rat brain) (rat (endogenous in rat brain)) (UniProt O88382); assay: as above
[3] = target: T3, SAP102 (endogenous, rat brain) (rat (endogenous in rat brain)) (UniProt Q62936); assay: as above
T3 sequence: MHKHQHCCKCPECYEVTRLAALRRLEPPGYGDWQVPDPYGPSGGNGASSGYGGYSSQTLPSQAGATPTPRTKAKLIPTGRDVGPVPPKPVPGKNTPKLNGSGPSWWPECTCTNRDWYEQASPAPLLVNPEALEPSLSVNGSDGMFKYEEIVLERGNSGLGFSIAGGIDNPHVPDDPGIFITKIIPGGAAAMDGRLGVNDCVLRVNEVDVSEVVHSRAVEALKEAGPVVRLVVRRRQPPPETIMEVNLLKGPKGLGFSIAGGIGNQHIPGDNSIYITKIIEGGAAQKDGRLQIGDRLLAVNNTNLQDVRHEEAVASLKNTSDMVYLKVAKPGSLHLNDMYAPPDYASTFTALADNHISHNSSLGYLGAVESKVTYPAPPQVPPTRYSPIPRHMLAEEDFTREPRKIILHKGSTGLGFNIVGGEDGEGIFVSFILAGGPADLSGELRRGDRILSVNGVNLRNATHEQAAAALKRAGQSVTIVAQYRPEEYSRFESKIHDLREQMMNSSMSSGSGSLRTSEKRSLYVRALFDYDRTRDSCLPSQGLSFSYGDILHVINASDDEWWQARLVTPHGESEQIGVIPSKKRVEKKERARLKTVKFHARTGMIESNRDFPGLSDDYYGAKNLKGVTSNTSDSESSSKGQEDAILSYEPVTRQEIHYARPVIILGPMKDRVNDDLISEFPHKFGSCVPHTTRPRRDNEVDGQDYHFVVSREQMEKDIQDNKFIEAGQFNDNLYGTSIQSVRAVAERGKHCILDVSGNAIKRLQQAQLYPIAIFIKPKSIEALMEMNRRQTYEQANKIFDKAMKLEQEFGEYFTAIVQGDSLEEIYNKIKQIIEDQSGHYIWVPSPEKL

[4] = target: SAP97 (endogenous, rat brain) (rat (endogenous in rat brain)) (UniProt Q62696); assay: as above
[5] = target: T4, RalA (endogenous, cultured rat hippocampal neurons) (rat (endogenous in cultured hippocampal neurons)), P63322; assay: co-IP; lysates of cultured neurons (>DIV 18), with or without NMDA treatment; immunoprecipitated with PSD-95 or POB1 antibodies and immunoblotted; details: remark: other sources report otherwise
T4 chain: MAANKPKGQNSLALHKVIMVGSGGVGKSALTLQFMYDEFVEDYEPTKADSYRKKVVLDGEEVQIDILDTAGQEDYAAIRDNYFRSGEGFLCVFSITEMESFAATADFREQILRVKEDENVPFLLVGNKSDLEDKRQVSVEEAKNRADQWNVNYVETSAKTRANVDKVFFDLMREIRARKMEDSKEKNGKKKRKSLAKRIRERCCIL

binding (HA-RalA G23V (mouse)): binds
binding (HA-RalA S28N (mouse)): no binding
Molecule: RalBP1 (WT) (from UniProt Q15311 1-655)

binding [1]: no binding
binding [2]: no binding
binding [3]: no binding
binding [4]: no binding
B1: RalBP1 (endogenous, rat) (protein, UniProt Q62796 1-647)
chain: MTECFLPPTSSPSEHRRAEHGSGLTRTPSSEEISPTKFPELYRTGEPSPPHDILHEPPDIVSDDEKDHGKKKGKFKKKEKRTEGYVAFQEDSSGDEAESPSKMKRSKGIHVFKKPSFSKKKEKDFKIKEKPKEEKHKEEKHKEEKHKEKKCKDFTAADVVKQWKEKKKKKKPTQEPEVPQTDAPSLRPIFGAPFADAVERTMMYDGIRLPAVFRECVDYMEKHGMKCEGIYRVSGIKSKVDELKAAYDREESPNLEEYEPNTVASLLKQYLRDLPENLLTKELMPRFEEACGRTTEVEKVQEFQRLLRELPEYNHLLLSWLIVHMDHVIAKELETKMNIQNISIVLSPTVQISNRVLYVLFTHVQELFGTVLLKQVTRPLRWSNMATMPTLPETQAGIKEEIRRQEFLLNCLHRDLQGGIKDFSKEERLWEVQRILTALKRKLREAKRQECETKIAQEIASLSKEDVSKEETNENEEVINILLAQENEILTEQEELLAMEQFLRRQIASEKEEIDRLRAEIAEIQSRQHGRSETEEYSSDSESESEDEEELQIILEDLQRQNEELEIKNNHLNQAVHEEREAIVELRVQLRLLQMLRAKSEQQLQEEEEPERRGGTGPLPCEGVLEVRAAKEQAKPSPSKDRKETPI

binding [5]: no binding
B2: RalBP1 (endogenous, rat), Q62796 1-647 (protein)
chain: MTECFLPPTSSPSEHRRAEHGSGLTRTPSSEEISPTKFPELYRTGEPSPPHDILHEPPDIVSDDEKDHGKKKGKFKKKEKRTEGYVAFQEDSSGDEAESPSKMKRSKGIHVFKKPSFSKKKEKDFKIKEKPKEEKHKEEKHKEEKHKEKKCKDFTAADVVKQWKEKKKKKKPTQEPEVPQTDAPSLRPIFGAPFADAVERTMMYDGIRLPAVFRECVDYMEKHGMKCEGIYRVSGIKSKVDELKAAYDREESPNLEEYEPNTVASLLKQYLRDLPENLLTKELMPRFEEACGRTTEVEKVQEFQRLLRELPEYNHLLLSWLIVHMDHVIAKELETKMNIQNISIVLSPTVQISNRVLYVLFTHVQELFGTVLLKQVTRPLRWSNMATMPTLPETQAGIKEEIRRQEFLLNCLHRDLQGGIKDFSKEERLWEVQRILTALKRKLREAKRQECETKIAQEIASLSKEDVSKEETNENEEVINILLAQENEILTEQEELLAMEQFLRRQIASEKEEIDRLRAEIAEIQSRQHGRSETEEYSSDSESESEDEEELQIILEDLQRQNEELEIKNNHLNQAVHEEREAIVELRVQLRLLQMLRAKSEQQLQEEEEPERRGGTGPLPCEGVLEVRAAKEQAKPSPSKDRKETPI
